# Measured values reported in PubChem BioAssay AID1487 (National Center for Advancing Translational Sciences (NCATS), 2009).
# The whole screen tested about 200,000 compounds, of which about 25 (0.01%) were called active. Inconclusive results (about 23%) are left out. Calls come from the whole dose curve; as a rule, active = well fitted inhibition curve with a large enough effect in the signal ratio, with a control signal flat (not every such curve was filed as active); inconclusive = small, poorly fitted or top-dose-only effect, or effect the other way, or a change in a side signal; inactive = flat fitted curve, though single readings scatter; the % refers to the signal ratio. Only a part is listed here, and it is no random draw.
# Assay: qHTS Assay for Modulators of Lamin A Splicing
# Conditions: HeLa LMNA splicing GFP/RFP minigene ratio, 48 h; series mostly up to 46.1 µM; ratio change, negative = inhibition: at the top concentration
# Source text: NCGC Assay Overview: Hutchinson-Gilford Progeria Syndrome (HGPS) is a pediatric premature aging disease caused by a spontaneous mutation in the lamin A/C (LMNA) gene. The mutation activates a cryptic splice site in the LMNA pre-mRNA which results in production of a pre-lamin A protein that cannot be processed properly. The mutant protein accumulates in the nucleus and negatively affects numerous cellular functions. Correction of the splicing defect in HGPS patient cells using a targeted oligonucleotide (exo11) leads to reversal of the cellular disease phenotypes. To identify small molecule modulators of aberrant LMNA splicing, a homogenous assay was constructed in HeLa cells that used a GFP containing minigene to report on correction of aberrant splicing in lamin A and a RFP (DsRed2) to report on cell viability, uniformity and nonspecific effects on the assay signal. This assay was adapted to laser-scanning microplate cytometry (Acumen, TTP Labtech) where miniaturization of the assay to a 1,536-well plate format was possible. References: Bowen, W. P.; Wylie, P. G. Application of Laser-Scanning Fluorescence Microplate Cytometry in High Content Screening. Assay Drug Dev Technol 2006;4:209-221. Scaffidi P, Misteli T. Reversal of the cellular phenotype in the premature aging disease Hutchinson-Gilford progeria syndrome. Nat.
# NCGC Assay Protocol Summary: Reagents/Controls: Stable clones expressing DsRed2 and lamin A-EGFP were generated by Cell and Molecular Technologies in S3 HeLa cells. HeLa cells were prepared for the assay when they were 70-90% confluent. The cells were counted and resuspended in Opti-MEM I (no phenol red; Gibco), 2% FBS, 1% penicillin/ streptomycin (Gibco) at concentration of 120 cells/uL concentration. The suspension was passed through a Falcon basket filter with pore size 40um (Beckton Dickson). Control titrations: column […] 1536-well plate contained a sixteen point titration (1:2 dilutions) in duplicate of ancitabine (Sigma: A8598) beginning at 40 uM final concentration. Column 2 contained a sixteen point titration (1:2 dilutions) of cycloheximide beginning at 1.4 mM final concentration. Column 3 contained ancitabine at 40 uM and column 4 contained was the vehicle control (0.5% DMSO final concentration). Assay Steps: 5 uL of HeLa cells were plated in Aurora LoBase black clear bottom (cyclic-olefin polymer) 1536-well plates at a final density of 600 cells/well. Controls and library compounds were added with a 1536-well pin array using the Kalypsys pin-tool. The plates were then incubated for 48 hrs in a cell-culture incubator (37 °C; 5% CO2, 98% humidity). Following incubation the plates were read on the Acumen Explorer using the 488 nm laser. Data was collected on objects between 10 and 100 um in size. Cell objects were defined by a 15 um width x 10 um depth filter. The ratio of the total object intensity in PMT1 (500-530 nm emission; GFP) over PMT3 (575-640 nm emission; RFP) was calculated for analysis. Keywords: NIH Roadmap, MLSCN, MLI, MLSMR, qHTS, NCGC, lamin A, Progeria, RNA splicing.
# % is set by controls: 0 for no effect and ±100 for the full control effect; potency is the fitted concentration of half-maximal effect.
SMILES,"ratio change, negative = inhibition",Potency
N[C@@H](Cc1c[nH]c2ccccc12)C(=O)O,inactive: -5.06%,
NS(=O)(=O)c1cc2c(cc1C(F)(F)F)NCNS2(=O)=O,inactive: 2.96%,
O=C(O)CCCCCN1C(=O)/C(=C/c2ccncc2)SC1=S,inactive: -17.9%,
Cc1noc(C)c1-c1ccc2ncnc(N3CCOCC3)c2c1,,active: 10 µM
CCOC(=O)C1CCCN(S(=O)(=O)c2ccc(F)c(C(=O)Nc3ccc(F)c(F)c3)c2)C1 (stereo not given),inactive: -19.4% [at 46 µM],
CC(=O)c1cc2c(cc1N/C(=N/S(=O)(=O)c1ccc(C)cc1)c1ccccc1)OCO2,inactive: -0.0955%,
NS(=O)(=O)c1cc2c(cc1Cl)NC(C1CC3C=CC1C3)NS2(=O)=O (stereo not given),inactive: -17.9%,
CCN(CC)CC(=O)Nc1c(C)cccc1C,,inactive
c1ccc2c(CC3=NCCN3)cccc2c1,inactive: 1.63%,
Cc1cn([C@H]2C=C[C@@H](CO)O2)c(=O)[nH]c1=O,inactive: -10.3%,
C[C@H](CO)NC(=O)[C@H](C)[C@H]1C[C@]1(C)[C@H](NC(=O)OCc1ccccc1)c1ccccc1,inactive: -2.32%,
COC(=O)C1C(O)CC[C@@H]2CN3CCc4c([nH]c5ccccc45)C3C[C@@H]12 (stereo not given in full),inactive: -2.86%,
Cn1cnc([N+](=O)[O-])c1Sc1ncnc2nc[nH]c12,inactive: -22.6%,
O=c1[nH]c2ccccc2n1CCCN1CCN(C(c2ccccc2)c2ccccc2)CC1,inactive: -26.6%,
OCCN(CCO)c1nc(N2CCCCC2)c2nc(N(CCO)CCO)nc(N3CCCCC3)c2n1,inactive: 0.0992%,
COCCN1C(=O)N[C@@H](c2cccc(C(F)(F)F)c2)[C@H](C(=O)OC)[C@H]1C,inactive: -9.9% [at 9.22 µM],
COc1ccc(C(=O)COC(=O)CCN2C(=O)C3C4CC(C(Br)C4Br)C3C2=O)cc1 (stereo not given),inactive: 2.06%,
NS(=O)(=O)c1ccc(NC(=O)CSc2ccc3ccccc3n2)cc1,inactive: -5.25%,
N[C@@H](Cc1cc(I)c(Oc2ccc(O)c(I)c2)c(I)c1)C(=O)O,inactive: -2.04%,
NC(=O)CC[C@H](N)C(=O)O,,inactive
C[C@@H](CCc1ccc(O)cc1)NCCc1ccc(O)c(O)c1,inactive: -13%,
CC(C)OC(=O)C(C)(C)Oc1ccc(C(=O)c2ccc(Cl)cc2)cc1,inactive: 6.48%,
CCOc1ccc2nc(S(N)(=O)=O)sc2c1,inactive: -4.24%,
CCOc1ccc(C(=O)OCCN(CC)CC)cc1,inactive: 10.6%,
COc1ccc2cc([C@H](C)C(=O)O)ccc2c1,,inactive
CC1(C)S[C@@H]2[C@H](NC(=O)[C@H](N)c3ccccc3)C(=O)N2[C@H]1C(=O)O,,inactive
O=c1n(CCCN2CCN(c3cccc(Cl)c3)CC2)nc2ccccn12,,inactive
CCC(NC(C)C)C(O)c1ccc(O)c2[nH]c(=O)ccc12 (stereo not given),inactive: -7.79%,

SMILES,"ratio change, negative = inhibition",Potency
CCCn1c(=O)c2[nH]c(C3CCCC3)nc2n(CCC)c1=O,,inactive
CCCN(CCC)CCc1cccc2c1CC(=O)N2,inactive: -16.4%,
NC1CONC1=O (stereo not given),inactive: -23.2%,
O=C(Nc1cccc(Oc2c(F)c(F)c(F)c(F)c2F)c1)N1C[C@@H]2C[C@@H](C1)c1cccc(=O)n1C2,inactive: 13.9%,
CNCCCC12CCC(c3ccccc31)c1ccccc12,inactive: -4.54% [at 46 µM],
C[C@]12C=CC(=O)C=C1CC[C@H]1[C@@H]3C[C@@H](O)[C@](O)(C(=O)CO)[C@@]3(C)C[C@H](O)[C@@]12F,inactive: 8.2%,
COC(=O)[C@H]1C[C@@H]1[C@H](NS(=O)(=O)c1ccccc1)c1ccccc1,inactive: 5.81%,
CCC[C@@H]1O[C@@H]2C[C@@H]3[C@H]4CCC5=CC(=O)C=C[C@@]5(C)[C@H]4[C@H](O)C[C@@]3(C)[C@@]2(C(=O)CO)O1,inactive: 10%,
CC(=O)CCCCn1c(=O)c2c(ncn2C)n(C)c1=O,,inactive
NCCNCCNCCN,inactive: -3.16%,
CCN1/C(=C\c2ccc3cc(C)ccc3[n+]2CC)Sc2cc(C)c(C)cc21,inactive: -14.6% [at 46 µM],
Cc1noc(C)c1-c1ccc2ncnc(NCCN3CCOCC3)c2c1,,active: 10 µM
COc1cc2nc(N3CCN(C(=O)[C@@H]4CCCO4)CC3)nc(N)c2cc1OC,inactive: -4.32%,
C[C@]12C[C@H](O)[C@H]3[C@@H](CCC4=CC(=O)CC[C@@]43C)[C@@H]1CC[C@@H]2C(=O)CO,inactive: -5.33%,
CN1C(=O)CCC1c1cccnc1 (stereo not given),inactive: -16.6%,
Nc1c2c(nc3ccccc13)CCCC2,inactive: -12.2%,
Cc1ccc(-n2c(O)c(/C=N/n3cnnc3)c3ccccc3c2=O)cc1,inactive: -12.3%,
CC1(C)S[C@@H]2[C@H](NC(=O)C(C(=O)O)c3ccccc3)C(=O)N2[C@H]1C(=O)O (stereo not given in full),inactive: -1.01%,
C[C@@H](CN1c2ccccc2Sc2ccccc21)N(C)C,inactive: -15.2%,
CC(C(=O)O)c1cccc(C(=O)c2ccccc2)c1 (stereo not given),,inactive
Cc1occc(=O)c1O,inactive: 2.22%,
CCOc1cc(CC(=O)N[C@@H](CC(C)C)c2ccccc2N2CCCCC2)ccc1C(=O)O,inactive: 23.4% [at 46 µM],
COc1ccc(C(=O)c2ccccc2)c(O)c1,inactive: 21.4%,
CC(=O)OCC(=O)[C@@]1(O)[C@H](C)C[C@H]2[C@@H]3CCC4=CC(=O)C=C[C@]4(C)[C@@]3(F)[C@@H](O)C[C@@]21C,inactive: -2.89%,
CC(C)NCC(O)c1ccc(O)c(O)c1 (stereo not given),,inactive
CC1=C(CC(=O)O)c2cc(F)ccc2/C1=C\c1ccc(S(C)=O)cc1 (stereo not given),inactive: -12.9%,
Cc1onc(-c2ccccc2)c1-c1ccc(S(N)(=O)=O)cc1,inactive: 5.76% [at 46 µM],
